Reference: the supplement of paper PMC8728848
The other results are listed elsewhere or left out.

Key:
Experiment in all cases: glycan array binding signal (z-score within array); higher = stronger binding
Conditions in all cases: glycan notation: IUPAC condensed, linker removed
[1] = biological target: Fuc(a1-2)Gal
In short: (§1)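 Glycan array binding is given as a within-array Z-score, which can be read as non-binding when negative. The arrays, 3228 of them, came from the Consortium for Functional Glycomics database and were retained only where the protein sequence was available. Z-scores were averaged across arrays of the same protein sequence at different concentrations or buffers and across linkers.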

[2] = biological target: Fuc(a1-2)Gal(b1-3)GalNAc
In short: as §1

[3] = biological target: Fuc(a1-2)Gal(b1-3)GalNAc(b1-3)Gal
In short: as §1

[4] = biological target: Fuc(a1-2)Gal(b1-3)GalNAc(b1-3)Gal(a1-4)Gal(b1-4)Glc
In short: as §1

[5] = biological target: Fuc(a1-2)Gal(b1-3)GalNAc(b1-4)[Neu5Ac(a2-3)]Gal(b1-4)Glc
In short: as §1

[6] = biological target: Fuc(a1-2)Gal(b1-3)GlcNAc
In short: as §1

[7] = biological target: Fuc(a1-2)Gal(b1-3)GlcNAc(b1-3)Gal(b1-4)Glc
In short: as §1

[8] = biological target: Fuc(a1-2)Gal(b1-3)[Fuc(a1-4)]GlcNAc
In short: as §1

[9] = biological target: Fuc(a1-2)Gal(b1-4)Glc
In short: as §1

[10] = biological target: Fuc(a1-2)Gal(b1-4)GlcNAc
In short: as §1

[11] = biological target: Fuc(a1-2)Gal(b1-4)GlcNAc(b1-3)Gal(b1-4)GlcNAc
In short: as §1

[12] = biological target: Fuc(a1-2)Gal(b1-4)GlcNAc(b1-3)Gal(b1-4)GlcNAc(b1-3)Gal(b1-4)GlcNAc
In short: as §1

[13] = biological target: Fuc(a1-2)Gal(b1-4)[Fuc(a1-3)]GlcNAc
In short: as §1

[14] = biological target: Fuc(a1-2)Gal(b1-4)[Fuc(a1-3)]GlcNAc(b1-3)Gal(b1-4)[Fuc(a1-3)]GlcNAc
In short: as §1

[15] = biological target: Fuc(a1-2)Gal(b1-4)[Fuc(a1-3)]GlcNAc(b1-3)Gal(b1-4)[Fuc(a1-3)]GlcNAc(b1-3)Gal(b1-4)[Fuc(a1-3)]GlcNAc
In short: as §1

[16] = biological target: Fuc(a1-2)GlcNAc
In short: as §1

[17] = biological target: Fuc(a1-2)[Gal(a1-3)]Gal
In short: as §1

[18] = biological target: Fuc(a1-2)[Gal(a1-3)]Gal(b1-3)GlcNAc
In short: as §1

[19] = biological target: Fuc(a1-2)[Gal(a1-3)]Gal(b1-4)Glc
In short: as §1

[20] = biological target: Fuc(a1-2)[Gal(a1-3)]Gal(b1-4)GlcNAc
In short: as §1

[21] = biological target: Fuc(a1-2)[Gal(a1-3)]Gal(b1-4)[Fuc(a1-3)]GlcNAc
In short: as §1

[22] = biological target: Fuc(a1-2)[Gal(a1-4)]Gal(b1-4)GlcNAc
In short: as §1

[23] = biological target: Fuc(a1-2)[GalNAc(a1-3)]Gal
In short: as §1

[24] = biological target: Fuc(a1-2)[GalNAc(a1-3)]Gal(b1-3)GlcNAc
In short: as §1

[25] = biological target: Fuc(a1-2)[GalNAc(a1-3)]Gal(b1-4)Glc
In short: as §1

[26] = biological target: Fuc(a1-2)[GalNAc(a1-3)]Gal(b1-4)GlcNAc
In short: as §1

[27] = biological target: Fuc(a1-2)[GalNAc(a1-3)]Gal(b1-4)[Fuc(a1-3)]GlcNAc
In short: as §1

[28] = biological target: Fuc(a1-2)[GalNAc(a1-4)]Gal(b1-4)GlcNAc
In short: as §1

[29] = biological target: Fuc(a1-2)[GalNAc(b1-3)]Gal
In short: as §1

[30] = biological target: Fuc(a1-3)GlcNAc
In short: as §1

[31] = biological target: Fuc(a1-3)[Gal(b1-4)]GlcNAc
In short: as §1

[32] = biological target: Fuc(a1-3)[Gal(b1-4)]GlcNAc(b1-4)Gal(b1-4)[Fuc(a1-3)]GlcNAc
In short: as §1

[33] = biological target: Fuc(a1-3)[Gal(b1-4)]GlcNAc(b1-4)Gal(b1-4)[Fuc(a1-3)]GlcNAc(b1-4)Gal(b1-4)[Fuc(a1-3)]GlcNAc
In short: as §1

[34] = biological target: Fuc(a1-3)[Gal3S(b1-4)]GlcNAc
In short: as §1

[35] = biological target: Fuc(a1-3)[GalNAc(b1-4)]GlcNAc
In short: as §1

[36] = biological target: Fuc(a1-4)GlcNAc
In short: as §1

[37] = biological target: Fuc(b1-3)GlcNAc
In short: as §1

[38] = biological target: Gal(a1-2)Gal
In short: as §1

[39] = biological target: Gal(a1-3)Gal
In short: as §1

[40] = biological target: Gal(a1-3)Gal(b1-3)GlcNAc
In short: as §1

[41] = biological target: Gal(a1-3)Gal(b1-4)Glc
In short: as §1

[42] = biological target: Gal(a1-3)Gal(b1-4)GlcNAc
In short: as §1

[43] = biological target: Gal(a1-3)Gal(b1-4)[Fuc(a1-3)]GlcNAc
In short: as §1

[44] = biological target: Gal(a1-3)GalNAc
In short: as §1

[45] = biological target: Gal(a1-3)[Gal(a1-4)]Gal(b1-4)GlcNAc
In short: as §1

[46] = biological target: Gal(a1-4)Gal(b1-4)Glc
In short: as §1

[47] = biological target: Gal(a1-4)Gal(b1-4)GlcNAc
In short: as §1

[48] = biological target: Gal(a1-4)GlcNAc
In short: as §1

[49] = biological target: Gal(a1-6)Glc
In short: as §1

[50] = biological target: Gal(b1-2)Gal
In short: as §1

[51] = biological target: Gal(b1-3)Gal
In short: as §1

[52] = biological target: Gal(b1-3)GalNAc
In short: as §1

[53] = biological target: Gal(b1-3)GalNAc(b1-3)Gal(a1-4)Gal(b1-4)Glc
In short: as §1

[54] = biological target: Gal(b1-3)GalNAc(b1-4)Gal(b1-4)Glc
In short: as §1

[55] = biological target: Gal(b1-3)GalNAc(b1-4)[Neu5Ac(a2-3)]Gal(b1-4)Glc
In short: as §1

[56] = biological target: Gal(b1-3)GlcNAc
In short: as §1

[57] = biological target: Gal(b1-3)GlcNAc(b1-3)Gal(b1-4)Glc
In short: as §1

[58] = biological target: Gal(b1-3)GlcNAc(b1-3)Gal(b1-4)GlcNAc
In short: as §1

[59] = biological target: Gal(b1-3)[Fuc(a1-4)]GlcNAc
In short: as §1

[60] = biological target: Gal(b1-3)[Fuc(a1-4)]GlcNAc(b1-3)Gal(b1-4)GlcNAc
In short: as §1

[61] = biological target: Gal(b1-3)[Fuc(a1-4)]GlcNAc(b1-3)Gal(b1-4)[Fuc(a1-3)]GlcNAc
In short: as §1

[62] = biological target: Gal(b1-3)[GlcNAc(b1-6)]GalNAc
In short: as §1

[63] = biological target: Gal(b1-3)[Neu5Ac(a2-6)]GalNAc
In short: as §1

[64] = biological target: Gal(b1-3)[Neu5Ac(a2-6)]GlcNAc(b1-6)Gal(b1-4)Glc
In short: as §1

[65] = biological target: Gal(b1-3)[Neu5Ac(b2-6)]GalNAc
In short: as §1

[66] = biological target: Gal(b1-4)GalNAc(a1-3)[Fuc(a1-2)]Gal(b1-4)GlcNAc
In short: as §1

[67] = biological target: Gal(b1-4)GalNAc(b1-3)[Fuc(a1-2)]Gal(b1-4)GlcNAc
In short: as §1

[68] = biological target: Gal(b1-4)Glc
In short: as §1

[69] = biological target: Gal(b1-4)Glc6S
In short: as §1

[70] = biological target: Gal(b1-4)GlcNAc
In short: as §1

[71] = biological target: Gal(b1-4)GlcNAc(b1-2)Man(a1-3)[Gal(b1-4)GlcNAc(b1-2)Man(a1-6)]Man(b1-4)GlcNAc(b1-4)GlcNAc
In short: as §1

[72] = biological target: Gal(b1-4)GlcNAc(b1-3)Gal(b1-4)Glc
In short: as §1

[73] = biological target: Gal(b1-4)GlcNAc(b1-3)Gal(b1-4)GlcNAc
In short: as §1

[74] = biological target: Gal(b1-4)GlcNAc(b1-3)Gal(b1-4)GlcNAc(b1-3)Gal(b1-4)GlcNAc
In short: as §1

[75] = biological target: Gal(b1-4)GlcNAc(b1-3)Gal(b1-4)[Fuc(a1-3)]GlcNAc(b1-3)Gal(b1-4)[Fuc(a1-3)]GlcNAc
In short: as §1

B1: CLL-1 (Homo sapiens) (protein)
chain: MWIDFFTYSSMSEEVTYADLQFQNSSEMEKIPEIGKFGEKAPPAPSHVWRPAALFLTLLCLLLLIGLGVLASMFHVTLKIEMKKMNKLQNISEELQRNISLQLMSNMNISNKIRNLSTTLQTIATKLCRELYSKEQEHKCKPCPRRWIWHKDSCYFLSDDVQTWQESKMACAAQNASLLKINNKNALEFIKSQSRSYDYWLGLSPEEDSTRGMRVDNIINSSAWVIRNAPDLNNMYCGYINRLYVQYYHCTYKKRMICEKMANPVQLGSTYFREA
glycan array binding signal (z-score) [1]: -0.173
glycan array binding signal (z-score) [2]: -0.191
glycan array binding signal (z-score) [3]: 0.132
glycan array binding signal (z-score) [4]: -0.1
glycan array binding signal (z-score) [5]: -0.192
glycan array binding signal (z-score) [6]: -0.112
glycan array binding signal (z-score) [7]: -0.19
glycan array binding signal (z-score) [8]: -0.204
glycan array binding signal (z-score) [9]: -0.193
glycan array binding signal (z-score) [10]: -0.23
glycan array binding signal (z-score) [11]: -0.121
glycan array binding signal (z-score) [12]: -0.214
glycan array binding signal (z-score) [13]: -0.166
glycan array binding signal (z-score) [14]: -0.165
glycan array binding signal (z-score) [15]: -0.07
glycan array binding signal (z-score) [16]: -0.215
glycan array binding signal (z-score) [17]: -0.225
glycan array binding signal (z-score) [18]: -0.163
glycan array binding signal (z-score) [19]: -0.234
glycan array binding signal (z-score) [20]: -0.176
glycan array binding signal (z-score) [21]: -0.12
glycan array binding signal (z-score) [22]: -0.135
glycan array binding signal (z-score) [23]: -0.099
glycan array binding signal (z-score) [24]: -0.095
glycan array binding signal (z-score) [25]: -0.065
glycan array binding signal (z-score) [26]: -0.201
glycan array binding signal (z-score) [27]: -0.164
glycan array binding signal (z-score) [28]: -0.194
glycan array binding signal (z-score) [29]: -0.222
glycan array binding signal (z-score) [30]: -0.245
glycan array binding signal (z-score) [31]: -0.14
glycan array binding signal (z-score) [32]: -0.182
glycan array binding signal (z-score) [33]: -0.169
glycan array binding signal (z-score) [34]: -0.143
glycan array binding signal (z-score) [35]: -0.276
glycan array binding signal (z-score) [36]: -0.169
glycan array binding signal (z-score) [37]: -0.181
glycan array binding signal (z-score) [38]: -0.276
glycan array binding signal (z-score) [39]: -0.149
glycan array binding signal (z-score) [40]: -0.136
glycan array binding signal (z-score) [41]: -0.278
glycan array binding signal (z-score) [42]: -0.149
glycan array binding signal (z-score) [43]: -0.193
glycan array binding signal (z-score) [44]: -0.123
glycan array binding signal (z-score) [45]: -0.247
glycan array binding signal (z-score) [46]: -0.184
glycan array binding signal (z-score) [47]: -0.072
glycan array binding signal (z-score) [48]: -0.166
glycan array binding signal (z-score) [49]: -0.163
glycan array binding signal (z-score) [50]: -0.198
glycan array binding signal (z-score) [51]: -0.198
glycan array binding signal (z-score) [52]: -0.159
glycan array binding signal (z-score) [53]: -0.212
glycan array binding signal (z-score) [54]: -0.279
glycan array binding signal (z-score) [55]: -0.157
glycan array binding signal (z-score) [56]: -0.175
glycan array binding signal (z-score) [57]: -0.048
glycan array binding signal (z-score) [58]: -0.141
glycan array binding signal (z-score) [59]: -0.168
glycan array binding signal (z-score) [60]: -0.114
glycan array binding signal (z-score) [61]: -0.122
glycan array binding signal (z-score) [62]: -0.17
glycan array binding signal (z-score) [63]: -0.197
glycan array binding signal (z-score) [64]: -0.261
glycan array binding signal (z-score) [65]: -0.117
glycan array binding signal (z-score) [66]: -0.189
glycan array binding signal (z-score) [67]: -0.259
glycan array binding signal (z-score) [68]: -0.186
glycan array binding signal (z-score) [69]: -0.187
glycan array binding signal (z-score) [70]: -0.173
glycan array binding signal (z-score) [71]: -0.216
glycan array binding signal (z-score) [72]: -0.267
glycan array binding signal (z-score) [73]: -0.256
glycan array binding signal (z-score) [74]: -0.169
glycan array binding signal (z-score) [75]: -0.107
